In patent publication US20200238197A1 (REPLIGEN, published 2020):
Where a chain is given by its changes, count along the chain named. In names and notes the source's numbering stands.

B1: cs27 (designed binder)
chain: IAAKFDEAQQAAFYEILHLPNLTEEQRNAFIQSLRDDPSVSLEVLGEAQKLNDSQAPKWSHPQFEK
B2: cs26 A46C (designed binder)
chain: B1 chain with K4Q, F5H, E7K, A8D, V44I, G46C, Q49K, S54A
B3: cs27 G46C (designed binder)
chain: B1 chain with G46C
B4: cs26 (designed binder)
chain: B1 chain with K4Q, F5H, E7K, A8D, V44I, G46A, Q49K, S54A
B5: cs26 A46C (trimer) (designed binder)
chain: IAAQHDKDQQAAFYEILHLPNLTEEQRNAFIQSLRDDPSVSLEILCEAKKLNDAQAPKIAAQHDKDQQAAFYEILHLPNLTEEQRNAFIQSLRDDPSVSLEILCEAKKLNDAQAPKIAAQHDKDQQAAFYEILHLPNLTEEQRNAFIQSLRDDPSVSLEILCEAKKLNDAQAPKWSHPQFEK
B6: cs26 A46C (dimer) (designed binder)
chain: IAAQHDKDQQAAFYEILHLPNLTEEQRNAFIQSLRDDPSVSLEILCEAKKLNDAQAPKIAAQHDKDQQAAFYEILHLPNLTEEQRNAFIQSLRDDPSVSLEILCEAKKLNDAQAPKWSHPQFEK
B7: Staphylococcus aureus Protein A domain C (other)
chain: ADNKFNKEQQNAFYEILHLPNLTEEQRNGFIQSLKDDPSVSKEILAEAKKLNDAQAPKWSHPQFEK
notes: also called wildtype domain C; wildtype Protein A domain C
B8: cs14 G46C (designed binder)
chain: IAAKHDKDQQAAFYEILHLPNLTEDQRNAFIQSLRDDPSVSLEILCEAKKLNDAQAPPWSHPQFEK
B9: cs14 E43C (designed binder)
chain: B8 chain with E43C, C46G
B10: cs14 (designed binder)
chain: B8 chain with C46G
B11: IB14 (designed binder)
chain: B8 chain with I1P, A11S, N28S, R35K, L42K, C46G
B12: IB14 E43C (designed binder)
chain: B8 chain with I1P, A11S, N28S, R35K, L42K, E43C, C46G
B13: IB14 K50C (designed binder)
chain: B8 chain with I1P, A11S, N28S, R35K, L42K, C46G, K50C
B14: IB14 E47C (designed binder)
chain: B8 chain with I1P, A11S, N28S, R35K, L42K, C46G, E47C
B15: IB14 G46C (designed binder)
chain: B8 chain with I1P, A11S, N28S, R35K, L42K

The binders below were run against Natalizumab (assay: SPR, Biacore 3000, CM5 chip, 25 C, Langmuir 1:1).
For B1, the Kd was 2.54 nM. Binder B2 has a Kd of 3 nM. B3 gave a Kd of 0.302 nM. With B4 the Kd was 5.81 nM. With B5 the Kd was 1.98 nM. B6 gave a Kd of 1.86 nM. B7 gave a Kd of 3.95 nM. For B8, the Kd was 3.38 nM. B9 was tested, and the Kd was 0.302 nM. In the case of B10, the Kd is reported as 2.51 nM.

These binders were tested against T1, human IgG1-Fc (human, UniProt P01857-1 100-330 = IgG part) (assay: SPR, Biacore 3000, CM5 chip, 25 C, Langmuir 1:1).
T1 construct: domain: Fc; also called IgG-Fc
With B11 the Kd was 1.28 nM. Work on B12 yielded a Kd of 45.5 nM. B13 was tested, and the Kd was 42.8 nM. B10 was tested, and the Kd was 6.48 nM. With B14 the Kd was 48.8 nM. B15 was tested, and the Kd was 72.9 nM.
